# Patent US20250064779A1, “COMPOSITIONS AND METHODS FOR THE TREATMENT OF DEPRESSION” (Janssen Pharmaceuticals, Inc., priority 2022, published 2025)
# Read-outs that look alike come from different tables or passages of the source.
# How the values were obtained:
# [1] = tested on: subjects with MDD who have had an inadequate response to SSRI/SNRI treatment; test: Treatment-emergent adverse events, full safety analysis set, Example 1; assay type: in vivo, human
# [2] = tested on: subjects with MDD who have had an inadequate response to SSRI/SNRI treatment; conditions: eITT
# [3] = 10 mg (N = 85), treatment period, full safety analysis set
# [4] = TEAE of special interest, 10 mg (N = 85), treatment period, full safety analysis set
# [5] = Table 24, TEAE in >=5% of subjects in either group, 10 mg (N = 85), full safety analysis set
# [6] = high anhedonia (SHAPS >=38 at treatment baseline), Treatment Week 1
# [7] = high anhedonia (SHAPS >=38 at treatment baseline), Treatment Week 3
# [8] = high anhedonia (SHAPS >=38 at treatment baseline), Treatment Week 4
# [9] = high anhedonia (SHAPS >=38 at treatment baseline), Treatment Week 5
# [10] = high anhedonia (SHAPS >=38 at treatment baseline), Treatment Week 6
structure (smiles),measurement,setting,value
"Cc1cc(C)cc(C2CCCN2Cc2ccc(Oc3ccc(C(N)=O)cc3F)cc2)c1 (stereo not shown) [aticaprant, 3-fluoro-4-4-2-(3,5-dimethylphenyl)pyrrolidin-1-yl-methylphenoxybenzamide]",Subjects with 1 or more TEAE,[1]; [3],40 (47.1) n (%)
same,Subjects with 1 or more serious TEAE,[1]; [3],0 n (%)
same,Subjects with TEAE leading to death,[1]; [3],0 n (%)
same,Subjects with TEAE leading to discontinuation of agent,[1]; [3],1 (1.2) n (%)
same,Total subjects affected by non-serious adverse events,[1]; [3],23 (27.1%) n (%)
same,Subjects with drug-related TEAE,"[1]; 10 mg (N = 85), treatment period, full safety analysis set, relationship possible, probable, very likely",20 (23.5) n (%)
same,TEAE of special interest: Abdominal Pain,[1]; [4],1 (1.2) n (%)
same,TEAE of special interest: Abdominal Pain Upper,[1]; [4],0 n (%)
same,TEAE of special interest: Diarrhea,[1]; [4],7 (8.2) n (%)
same,TEAE of special interest: Dyspepsia,[1]; [4],1 (1.2) n (%)
same,TEAE of special interest: Gastrointestinal Disorders,[1]; [4],9 (10.6) n (%)
same,TEAE of special interest: Pruritus,[1]; [4],5 (5.9) n (%)
same,TEAE of special interest: Skin And Subcutaneous Tissue Disorders,[1]; [4],5 (5.9) n (%)
same,Total no. Subjects with Adverse Events of Special Interest,[1]; [4],13 (15.3) n (%)
same,TEAE: Diarrhea,[1]; [5],7 (8) n (%)
same,TEAE: Gastrointestinal Disorders,[1]; [5],12 (14) n (%)
same,TEAE: Headache,[1]; [5],10 (12) n (%)
same,TEAE: Infections And Infestations,[1]; [5],13 (15) n (%)
same,TEAE: Nasopharyngitis,[1]; [5],5 (6) n (%)
same,TEAE: Nervous System Disorders,[1]; [5],13 (15) n (%)
same,TEAE: Pruritus,[1]; [5],5 (6) n (%)
same,TEAE: Skin And Subcutaneous Tissue Disorders,[1]; [5],6 (7) n (%)
same,Total no. Subjects with Adverse Events,[1]; [5],40 (47) n (%)
same,subjects who discontinued during the treatment period due to treatment-emergent adverse events,"[1]; due to diarrhea, nausea, vomiting and headache",1 subject
same,TEAE diarrhea during the treatment period,"[1]; full safety analysis set, 7/85 subjects",8.2%
same,TEAE headache during the treatment period,"[1]; full safety analysis set, 10/85 subjects",11.8%
same,subjects who experienced TEAEs of special interest during the treatment period,"[1]; full safety analysis set, 13/85 subjects",15.3%
same,subjects who experienced at least one TEAE during the treatment period,"[1]; full safety analysis set, 40/85 subjects",47.1%
same,patients who experienced acute cholecystitis,[1]; treatment period,0 patients
same,MADRS Total Score: Mean Change to Placebo (SD pooled),"[2]; Treatment Week 1, 10 mg adjunctive to SSRI/SNRI",−1.1 (4.52)
same,MADRS Total Score: LSMean Difference (SE) Treatment-Placebo,"[2]; Treatment Week 1, MMRM",−1.2
same,MADRS Total Score: Mean Change to Placebo (SD pooled),"[2]; Treatment Week 3, 10 mg adjunctive to SSRI/SNRI",−1.4 (6.18)
same,MADRS Total Score: Change from Baseline LSMean (SE),"[2]; Treatment Week 3, MMRM",−5.6
same,MADRS Total Score: LSMean Difference (SE) Treatment-Placebo,"[2]; Treatment Week 3, MMRM",−1.5
same,MADRS Total Score: Mean Change to Placebo (SD pooled),"[2]; Treatment Week 4, 10 mg adjunctive to SSRI/SNRI",−0.9 (7.00)
same,MADRS Total Score: Change from Baseline LSMean (SE),"[2]; Treatment Week 4, MMRM",−7.3
same,MADRS Total Score: LSMean Difference (SE) Treatment-Placebo,"[2]; Treatment Week 4, MMRM",−1.1
same,MADRS Total Score: Mean Change to Placebo (SD pooled),"[2]; Treatment Week 5, 10 mg adjunctive to SSRI/SNRI",−1.1 (7.25)
same,MADRS Total Score: Change from Baseline LSMean (SE),"[2]; Treatment Week 5, MMRM",−8.7
same,MADRS Total Score: LSMean Difference (SE) Treatment-Placebo,"[2]; Treatment Week 5, MMRM",−1.5
same,MADRS Total Score: Mean Change to Placebo (SD pooled),"[2]; Treatment Week 6, 10 mg adjunctive to SSRI/SNRI",−2.0 (8.49)
same,MADRS Total Score: Change from Baseline LSMean (SE),"[2]; Treatment Week 6, MMRM",−10.1
same,MADRS Total Score: LSMean Difference (SE) Treatment-Placebo,"[2]; Treatment Week 6, MMRM",−2.1
same,MADRS total score: difference between aticaprant and placebo,"[2]; Treatment Week 6, high anhedonia level (SHAPS total score ≥38) at treatment baseline, n=53",−3.4
same,MADRS total score: observed effect size,"[2]; Treatment Week 6, high anhedonia level (SHAPS ≥38)",0.38
same,MADRS total score: observed effect size,"[2]; Treatment Week 6, low anhedonia level (20≤SHAPS<38)",0.11
same,MADRS total score: difference between aticaprant and placebo,"[2]; Treatment Week 6, low anhedonia level (20≤baseline SHAPS total score <38), n=65",−0.9
same,"MADRS total score: LSMeans difference estimate vs placebo, supplementary analysis (COVID-19 impact)","[2]; data collected prior to 15 Mar. 2020, MMRM",−3.0
same,MADRS Total Score: Effect size vs placebo,[2]; [6],−0.39
same,MADRS Total Score: Mean Change from Baseline (SD),[2]; [6],−4.6 (5.25)
same,MADRS Total Score: Mean Change to Placebo (SD pooled),[2]; [6],−1.8 (4.69)
same,MADRS Total Score: Effect size vs placebo,[2]; [7],−0.46
same,MADRS Total Score: Mean Change from Baseline (SD),[2]; [7],−6.7 (6.83)
same,MADRS Total Score: Mean Change to Placebo (SD pooled),[2]; [7],−3.0 (6.59)
same,MADRS Total Score: Effect size vs placebo,[2]; [8],−0.30
same,MADRS Total Score: Mean Change from Baseline (SD),[2]; [8],−8.5 (7.26)
same,MADRS Total Score: Mean Change to Placebo (SD pooled),[2]; [8],−2.2 (7.30)
same,MADRS Total Score: Effect size vs placebo,[2]; [9],−0.33
same,MADRS Total Score: Mean Change from Baseline (SD),[2]; [9],−9.7 (8.18)
same,MADRS Total Score: Mean Change to Placebo (SD pooled),[2]; [9],−2.6 (7.93)
same,MADRS Total Score: Effect size vs placebo,[2]; [10],−0.38
same,MADRS Total Score: Mean Change from Baseline (SD),[2]; [10],−11.5 (8.95)
same,MADRS Total Score: Mean Change to Placebo (SD pooled),[2]; [10],−3.4 (8.98)
same,MADRS Total Score: Effect size vs placebo,"[2]; low anhedonia (SHAPS >=20 and <38 at treatment baseline), Treatment Week 1",−0.12
